Test results taken from PubChem BioAssay AID485294 (National Center for Advancing Translational Sciences (NCATS), 2010).
Screen size: about 370,000 compounds; about 150 (0.041%) were called active. Inconclusive means that the source gave no clear call. Such entries were picked first, then a sample of the others. Calls come from the whole dose curve; as a rule, active = well fitted inhibition curve with a large enough effect; inconclusive = small, poorly fitted or top-dose-only effect; inactive = flat fitted curve, though single readings scatter. Potencies of inconclusive entries are left out as doubtful fits.

Each compound was assayed against Beta-lactamase (Escherichia coli (strain K12)) (UniProt P00811) (assay: qHTS Inhibitors of AmpC Beta-Lactamase (assay with detergent)). Conditions: AmpC hydrolysis of nitrocefin, absorbance 480 nm, 0.01% Triton; series mostly up to 114 µM.
Sequence of UniProt P00811 (P00811 whole entry, looked up): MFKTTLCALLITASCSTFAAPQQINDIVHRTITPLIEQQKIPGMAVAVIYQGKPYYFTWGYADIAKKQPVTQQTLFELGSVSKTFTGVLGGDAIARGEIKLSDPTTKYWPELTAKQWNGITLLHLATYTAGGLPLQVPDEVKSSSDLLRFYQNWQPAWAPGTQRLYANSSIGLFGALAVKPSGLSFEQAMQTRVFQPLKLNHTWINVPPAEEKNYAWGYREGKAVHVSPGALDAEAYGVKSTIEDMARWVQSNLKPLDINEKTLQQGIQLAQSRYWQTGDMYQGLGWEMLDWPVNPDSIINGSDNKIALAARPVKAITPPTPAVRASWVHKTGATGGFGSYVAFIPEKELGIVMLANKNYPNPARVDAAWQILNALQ
Summary of the method: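 20 mM phosphate pH 7.0 + 0.01% (detergent screen) or 0.0001% Triton X-100; 5.3 nM AmpC reagent; cpd preinc 15 min RT; nitrocefin (800 uM stock) to start; A480 q20 s × 4 min; Activity was normalised to no-enzyme and no-compound control wells.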
Note: nearly all actives have a fitted effect of over 25% in size.
Potency is the fitted concentration of half-maximal effect; tags give direction and shape of the fitted curve.

| Compound | Potency |
| --- | --- |
| COC(=O)C1=C(C(=O)OC)[C@@H]2N(C)c3ccc(OC)cc3[C@@]23C[C@@H](C(=O)OC)N(S(=O)(=O)c2ccc([N+](=O)[O-])cc2)C3=N1 | inactive |
| COC(CNC(=O)c1ccc2c(c1)ncn2C1CCCCCC1)OC | inactive |
| CCC(=O)c1ccccc1OCCCCn1cncn1 | inactive |
| COc1ccc(NC(=O)COC(=O)c2ccc(N3CCCC3=O)cc2)cc1OC | inconclusive [inhibitor, partial curve, poor fit] |
| O=C(N/N=C1\CC(c2ccccc2)Oc2ccccc21)c1ccccn1 (stereo unspecified) | inactive |
| O=c1c2ccccc2sn1-c1cc(S(=O)(=O)N2CCOCC2)ccc1N1CCOCC1 | inconclusive [inhibitor, full curve, poor fit] |
| Fc1ccccc1Cc1cn2cc(-c3ccc(Cl)cc3)nc2s1 | inactive |
| CCN(Cc1ccccc1)Cc1ccc(OCc2ccccc2)c(OC)c1 | inconclusive [inhibitor, full curve, poor fit] |
| COc1cccc(NC(=O)CN(C)C(C)C(=O)Nc2ccc(S(=O)(=O)N3CCCC3)cc2)c1 (stereo unspecified) | inactive |
| O=C(c1ccc2c(c1)N(Cc1ccc(F)cc1)C(=O)c1ccccc1S2(=O)=O)N1CCCC1 | inactive |
| COc1ccc2nc(SCC(=O)c3c(N)n(C4CC4)c(=O)[nH]c3=O)[nH]c2c1 | inconclusive [inhibitor, full curve, poor fit] |
| Cc1cc(C)cc(C(=O)OCC(=O)NC(=O)NC2CCCC2)c1 | inactive |
| COc1cccc(CNC(=O)Cn2ncn3nc(-c4cccs4)cc3c2=O)c1OC | inactive |
| CC1(C)C(N(O)C(=O)Nc2ccccc2)N(c2cccc(Cl)c2)C(=O)N1O (stereo unspecified) | inconclusive [inhibitor, full curve, poor fit] |
| C=CCn1c(O)c(/C(C)=N/NC(=S)Nc2ccccc2)c(=O)[nH]c1=O | inactive |
| CCOc1ccc(CNC(=O)C2Cc3cc(S(=O)(=O)N4CCCCC4)ccc3N2C(C)=O)cc1 (stereo unspecified) | inactive |
| Cc1ccc2onc(CC(=O)N3CCN(c4cc(Cl)ccc4C)CC3)c2c1 | inactive |
| C=CCn1c(SCc2nc3sc(C(=O)O)c(C)c3c(=O)[nH]2)nnc1-c1ccc(F)cc1 | inconclusive [inhibitor, partial curve, poor fit] |
| O=C(Cc1ccccc1)NC(=S)Nc1cc(C(F)(F)F)ccc1Cl | inconclusive [inhibitor, partial curve, poor fit] |
| CCOC(=O)c1ccc(NC(=S)N2CCC(O)CC2)cc1 | inactive |
| O=c1c2ccc(Cl)cc2[nH]c(=S)n1-c1cccnc1 | inconclusive [inhibitor, single point] |
| Nc1cnc(CNc2ccccc2Cl)cn1 | inactive |
| CN(C)C(=O)CSc1ccc(S(=O)(=O)N2CCOCC2)cn1 | inactive |
| O=C(/C=C/c1ccccc1)c1ccccc1 | inactive |

| Compound | Potency |
| --- | --- |
| Cc1ccc(CCC(=O)Nc2cc(Cl)ccc2Cl)o1 | inconclusive [inhibitor, full curve, poor fit] |
| C=C1N2CCC(CC2)C1(O)c1ccc(C)cc1 (stereo unspecified) | inconclusive [inhibitor, single point] |
| N#Cc1cn(CC(=O)N2CCCC2)c2ccccc12 | inconclusive [inhibitor, full curve] |
| O=C(COC(=O)C1CCN(S(=O)(=O)c2ccc3c(c2)OCCO3)CC1)NC1CCS(=O)(=O)C1 (stereo unspecified) | inconclusive [inhibitor, single point] |
| COc1ccc(-c2csc(Nc3ncccn3)n2)cc1C | inactive |
| Cc1ccc(-c2csc3nc4c5ccccc5c(NCCCN(C)C)nn4c(=O)c23)cc1 | inactive |
| CN(Cc1ccc(Cl)cc1Cl)C(=O)CN1C(=O)NC2(CCCC2)C1=O | inconclusive [inhibitor, full curve, poor fit] |
| O=C(Nc1ccc(Cl)cn1)c1cc2c(s1)-c1ccccc1OC2 | inactive |
| Cc1cc(NC(=O)CCCC(=O)N(CC(=O)NCCc2ccccc2)Cc2ccc(F)cc2)no1 | inconclusive [inhibitor, full curve, poor fit] |
| CC(=O)Cc1nsc(NC(=O)c2ccccc2)n1 | inconclusive [inhibitor, partial curve, poor fit] |
| O=C(c1ccccn1)N(Cc1cc2ccccc2[nH]c1=O)C1CCCCC1 | inconclusive [inhibitor, partial curve, poor fit] |
| Cc1ccc2cc(C)c(SCC#N)nc2c1 | inactive |
| COCCCNC(=O)CCc1c(C)nc2nc(-c3cc(OC)cc(OC)c3)nn2c1C | inactive |
| Cc1ccc2cc(CCNC(=O)c3ccc(C)c([N+](=O)[O-])c3)c(=O)[nH]c2c1 | inconclusive [inhibitor, full curve] |
| COc1cccc(-c2cc(C(=O)Nc3c(C)nn(Cc4ccccc4C)c3C)no2)c1 | inactive |
| CC1(C)CC(C(=O)Nc2nccs2)CCO1 (stereo unspecified) | inconclusive [inhibitor, single point] |
| Cc1cc(C(=O)NCCCN2CCN(c3cc(Cl)ccc3C)CC2)n(-c2ccccc2)n1 | inconclusive [inhibitor, partial curve, poor fit] |
| Nc1ccc(C(=O)N/N=C\C=C\c2ccc([N+](=O)[O-])cc2)cc1 | inconclusive [inhibitor, full curve] |
| COc1ccc(-c2csc(NC(=S)NC(=O)/C=C/c3ccc(C(C)C)cc3)n2)cc1OC | inconclusive [inhibitor, full curve] |
| Cc1ccc(CNC(=O)C2CCN(S(=O)(=O)c3cn(C)cn3)CC2)cc1 | inactive |
| O=C(NCCCc1nc2ccccc2n1Cc1ccc(Cl)cc1)C1CCCCC1 | inactive |
| Cc1ccc(SC2CC(=O)N(c3ccc4c(c3)OCCO4)C2=O)cc1 (stereo unspecified) | inactive |
| CCC(=O)Nc1ccc(NC(=O)c2cccc3c(Br)cccc23)cc1 | inactive |
| O=C(Nc1ccc(CN2CCOCC2)cc1)c1ccc(N2CCCC2)c([N+](=O)[O-])c1 | inconclusive [inhibitor, full curve, poor fit] |

| Compound | Potency |
| --- | --- |
| Cc1ccc(/C=N\NC(=O)C2CC(=O)N(c3ccccc3)C2)o1 (stereo unspecified) | inconclusive [inhibitor, single point] |
| CCN1C(=O)C(O)(CC(=O)c2cc(C)ccc2C)c2ccccc21 (stereo unspecified) | inconclusive [inhibitor, full curve, poor fit] |
| Cc1ccc(NS(=O)(=O)c2ccc(Cl)c(C(=O)Nc3ccccc3-c3nc4ccccc4[nH]3)c2)cc1C | inactive |
| Cn1c(CSCc2ccccc2)n[nH]c1=S | inconclusive [inhibitor, full curve, poor fit] |
| O=C(CCNC(=O)c1ccccc1Cl)NCC1CCCO1 (stereo unspecified) | inconclusive [inhibitor, full curve] |
| CCCn1c2ccccc2c2cnn(CC(=O)N3CCCC(C)C3)c(=O)c21 (stereo unspecified) | inactive |
| CC(OC(=O)c1nc(Cl)ccc1Cl)C(=O)Nc1ccc2c(c1)OCCO2 (stereo unspecified) | inconclusive [inhibitor, partial curve] |
| Cc1ccnc(NS(=O)(=O)c2ccc(NC(=O)c3ccc(S(=O)(=O)N4CC(C)OC(C)C4)cc3)cc2)n1 (stereo unspecified) | inactive |
| O=C(Nc1ncccn1)c1cccc(F)c1 | inconclusive [inhibitor, full curve, poor fit] |
| Cc1ccc(C)c(NC(=O)/C(C#N)=C/c2cn(CC(=O)NCc3ccco3)c3ccccc23)c1 | inconclusive [inhibitor, full curve, poor fit] |
| COc1ccccc1N1CCN(CC(O)c2c(C)[nH]c3ccccc23)CC1 (stereo unspecified) | inconclusive [inhibitor, partial curve] |
| O=C(CSC(=S)N1CCCC1)N1CCN(S(=O)(=O)c2ccccc2F)CC1 | inconclusive [inhibitor, partial curve] |
| Cc1cc(/C=N/Nc2nc(N)ncc2[N+](=O)[O-])c(C)n1-c1cccc(C(F)(F)F)c1 | inactive |
| O=C(COC(=O)Cc1cccc(C(F)(F)F)c1)Nc1ccc2[nH]c(=O)[nH]c2c1 | inconclusive [inhibitor, partial curve] |
| CCC(=O)OCC(=O)C1(OC(=O)CC)[C@H](C)C[C@H]2[C@H]3[C@H]([C@@H](O)C[C@@]21C)[C@@]1(C)C=CC(=O)C=C1C[C@H]3Cl (stereo partly specified) | inconclusive [inhibitor, full curve, poor fit] |
| O=C(/C=C/c1ccco1)Nc1nc(-c2ccccc2)cs1 | inconclusive [inhibitor, full curve, poor fit] |
| Cc1ccc(C(CNC(=O)c2ccco2)N2CCN(C)CC2)cc1 (stereo unspecified) | inconclusive [inhibitor, partial curve] |
| COc1ccccc1NC(=O)NC(=O)c1ccccc1 | inactive |
| CN(C)CCCNc1ncnc2scc(-c3ccccc3)c12 | inconclusive [inhibitor, full curve, poor fit] |
| Cc1cccn2c(=O)c3cc(C(=O)NCC4CCCO4)c(=N)n(C4CCCC4)c3nc12 (stereo unspecified) | inconclusive [inhibitor, full curve, poor fit] |
| CCOCCOC(=O)NCCCCCCNC(=O)OCCOCC | inconclusive [inhibitor, partial curve] |
| CC(C)CC(c1nnnn1CCc1ccccc1)N1CCN(C(=O)c2ccco2)CC1 (stereo unspecified) | inconclusive [inhibitor, full curve, poor fit] |
| O=c1[nH]c2cc3c(cc2cc1CN(Cc1nnnn1C1CCCC1)C1CCCC1)OCCO3 | inactive |
